PMC11995724, “Antibiotic target discovery by integrated phenotypic and activity-based profiling of electrophilic fragments” (Cell chemical biology, 2025)
Out of some 3,200 compounds screened, about 110 (3.4%) showed an effect of 50% or more. The list shows a part of the results.

What follows are molecules tested on T1, V. cholerae SAD30. Conditions: relative growth, OD600, LB; 25 µM; inhibitor.
T1 construct: SAD30
Set-up: species or system S. aureus MSSA476 (TSB) or V. cholerae SAD30 (LB); 384-well bacterial growth screen at 25 uM, OD600 relative to DMSO control

Structure (SMILES) | % of control remaining
C=CC(=O)NCCC(=O)N1CCC(c2ncccn2)CC1 [3-M17, N-{3-oxo-3-[4-(pyrimidin-2-yl)piperidin-1-yl]propyl}prop-2-enamide] | 97.03%
CCN(c1ccc(NC(=O)CCl)cc1)C(C)C.Cl [5-J08, 2-chloro-N-{4-[ethyl(propan-2-yl)amino]phenyl}acetamide hydrochloride] | 95.4923%
N#CC(C(=O)CCl)=C1NC(C23CC4CC(CC(C4)C2)C3)=CS1 [10-F14, 2-[4-(adamantan-1-yl)-2,3-dihydro-1,3-thiazol-2-ylidene]-4-chloro-3-oxobutanenitrile] | 68.7317%
Cc1noc(CC(NC(=O)CCl)c2ccccc2)n1 (stereo not shown) [5-E04, 2-chloro-N-[2-(3-methyl-1,2,4-oxadiazol-5-yl)-1-phenylethyl]acetamide] | 98.8547%
CC1CCCC(NC(=O)C(C#N)=Cc2ccccc2)C1C (stereo not shown) [8-C19, 2-cyano-N-(2,3-dimethylcyclohexyl)-3-phenylprop-2-enamide] | 69.6805%
Cc1cccc(Cc2cnc(NC(=O)CCl)s2)c1 [4-B09, 2-chloro-N-{5-[(3-methylphenyl)methyl]-1,3-thiazol-2-yl}acetamide] | 87.6429%
N#CC(=Cc1c(Cl)cccc1Cl)C(=O)Nc1nccs1 [8-P09, 2-cyano-3-(2,6-dichlorophenyl)-N-(1,3-thiazol-2-yl)prop-2-enamide] | 77.9742%
CC(Cl)C(=O)NCc1nc(N(C)C)no1 (stereo not shown) [7-A04, 2-chloro-N-{[3-(dimethylamino)-1,2,4-oxadiazol-5-yl]methyl}propanamide] | 91.9874%
Cc1cccc(-n2c(C)cc(C(=O)CCl)c2C)c1 [10-A22, 2-chloro-1-[2,5-dimethyl-1-(3-methylphenyl)-1H-pyrrol-3-yl]ethan-1-one] | 108.163%
Cc1ncsc1C=C(C#N)C(=O)Nc1ccc(C(=O)N(C)C)cc1 [9-J16, 4-[2-cyano-3-(4-methyl-1,3-thiazol-5-yl)prop-2-enamido]-N,N-dimethylbenzamide] | 93.8817%
C=CC(=O)N(c1cc(C)ccc1C#N)C(C)C [2-A22, N-(2-cyano-5-methylphenyl)-N-(propan-2-yl)prop-2-enamide] | 111.811%
CC(=O)N1c2ccc(C(=O)CCl)cc2CC1C (stereo not shown) [10-I20, 1-(1-acetyl-2-methyl-2,3-dihydro-1H-indol-5-yl)-2-chloroethan-1-one] | 84.473%
O=C(CCl)NC(c1ccc(F)cc1)C1CCCC1 (stereo not shown) [6-K08, 2-chloro-N-[cyclopentyl(4-fluorophenyl)methyl]acetamide] | 80.0834%
O=C(CCl)NCC(F)(F)c1cc(-c2ccccc2)n[nH]1 [7-P20, 2-chloro-N-[2,2-difluoro-2-(3-phenyl-1H-pyrazol-5-yl)ethyl]acetamide] | 97.4062%
O=C(CCl)N1N=C(c2ccccc2)CC1c1ccccc1 (stereo not shown) [4-I20, 2-chloro-1-(3,5-diphenyl-4,5-dihydro-1H-pyrazol-1-yl)ethan-1-one] | 103.343%
C=CC(=O)N1CCN(CC(=O)NC)CC1 [1-F03, N-methyl-2-[4-(prop-2-enoyl)piperazin-1-yl]acetamide] | 104.634%
O=C(CCl)Nc1ccc(Oc2ccccc2)cc1 [4-J09, 2-chloro-N-(4-phenoxyphenyl)acetamide] | 97.6493%
COC(=O)C(C(=O)CCl)=C1Nc2ccccc2N1 [10-G12, methyl 4-chloro-2-(2,3-dihydro-1H-1,3-benzodiazol-2-ylidene)-3-oxobutanoate] | 96.6297%
O=C(CCl)N(Cc1ccc(Cl)cc1)C12CC3CC(CC(C3)C1)C2 [4-H07, N-(adamantan-1-yl)-2-chloro-N-[(4-chlorophenyl)methyl]acetamide] | 55.3806%
CC(=O)NCCc1ccc(C(=O)C(C)Cl)cc1 (stereo not shown) [10-B03, N-{2-[4-(2-chloropropanoyl)phenyl]ethyl}acetamide] | 104.734%
C=CC(=O)N1CCC(C(=O)N2CCCC(NC(=O)C(C)(C)C)C2)CC1 (stereo not shown) [2-F05, 2,2-dimethyl-N-{1-[1-(prop-2-enoyl)piperidine-4-carbonyl]piperidin-3-yl}propanamide] | 96.2173%
C=CC(=O)N(Cc1noc2c1CCCC2)CC1CCCC1 [1-H13, N-(cyclopentylmethyl)-N-[(4,5,6,7-tetrahydro-1,2-benzoxazol-3-yl)methyl]prop-2-enamide] | 77.728%
CNC(=O)Cn1ccc2ccc(NC(=O)C(C#N)=Cc3ccco3)cc21 [9-F18, 2-cyano-3-(furan-2-yl)-N-{1-[(methylcarbamoyl)methyl]-1H-indol-6-yl}prop-2-enamide] | 82.8688%
N#CC(=Cc1ccc(SC(F)(F)F)cc1)C(=O)NC1CC1 [9-C14, 2-cyano-N-cyclopropyl-3-{4-[(trifluoromethyl)sulfanyl]phenyl}prop-2-enamide] | 74.5751%
CC(=O)Nc1ccc(C=C(C#N)C(=O)NC2CCCCC2)cc1 [8-N16, 2-cyano-N-cyclohexyl-3-(4-acetamidophenyl)prop-2-enamide] | 72.5357%
O=C(CCl)NCCSc1ccc(Cl)cc1 [4-H17, 2-chloro-N-{2-[(4-chlorophenyl)sulfanyl]ethyl}acetamide] | 99.8922%
O=C(CCl)N1CCSc2c([nH]c3ccccc23)C1 [6-F08, 2-chloro-1-{2H,3H,4H,5H,6H-[1,4]thiazepino[6,7-b]indol-4-yl}ethan-1-one] | 87.8188%
C=CC(=O)N(C)Cc1cc2sccc2n1C [2-B19, N-methyl-N-({4-methyl-4H-thieno[3,2-b]pyrrol-5-yl}methyl)prop-2-enamide] | 92.203%
